Laboratory results reported in patent US20240173442A1, “COMBINATION THERAPY” (Hoffmann-La Roche Inc., priority 2021, published 2024).

B1: P1AD8749: CEA-split-DOTAM-VH hemibody targeting CH1A1A; heavy chains SEQ ID NO: 28 and 32, light chain SEQ ID NO: 34 (antibody)
heavy 1: QVQLVQSGAEVKKPGASVKVSCKASGYTFTEFGMNWVRQAPGQGLEWMGWINTKTGEATYVEEFKGRVTFTTDTSTSTAYMELRSLRSDDTAVYYCARWDFAYYVEAMDYWGQGTTVTVSSASTKGPSVFPLAPSSKSTSGGTAALGCLVKDYFPEPVTVSWNSGALTSGVHTFPAVLQSSGLYSLSSVVTVPSSSLGTQTYICNVNHKPSNTKVDKKVEPKSCDKTHTCPPCPAPEAAGGPSVFLFPPKPKDTLMISRTPEVTCVVVDVSHEDPEVKFNWYVDGVEVHNAKTKPREEQYNSTYRVVSVLTVLHQDWLNGKEYKCKVSNKALGAPIEKTISKAKGQPREPQVCTLPPSRDELTKNQVSLSCAVKGFYPSDIAVEWESNGQPENNYKTTPPVLDSDGSFFLVSKLTVDKSRWQQGNVFSCSVMHEALHNHYTQKSLSLSPG
heavy 2: QVQLVQSGAEVKKPGASVKVSCKASGYTFTEFGMNWVRQAPGQGLEWMGWINTKTGEATYVEEFKGRVTFTTDTSTSTAYMELRSLRSDDTAVYYCARWDFAYYVEAMDYWGQGTTVTVSSASTKGPSVFPLAPSSKSTSGGTAALGCLVKDYFPEPVTVSWNSGALTSGVHTFPAVLQSSGLYSLSSVVTVPSSSLGTQTYICNVNHKPSNTKVDKKV[human IgG1 Fc with changes not listed]GGGGSGGGGSGGGGSGGGGSVTLKESGPVLVKPTETLTLTCTVSGFSLSTYSMSWIRQPPGKALEWLGFIGSRGDTYYASWAKGRLTISKDTSKSQVVLTMTNMDPVDTATYYCARERDPYGGGAYPPHLWGRGTLVTVSS
light: DIQMTQSPSSLSASVGDRVTITCKASAAVGTYVAWYQQKPGKAPKLLIYSASYRKRGVPSRFSGSGSGTDFTLTISSLQPEDFATYYCHQYYTYPLFTFGQGTKLEIKRTVAAPSVFIFPPSDEQLKSGTASVVCLLNNFYPREAKVQWKVDNALQSGNSQESVTEQDSKDSTYSLSSTLTLSKADYEKHKVYACEVTHQGLSSPVTKSFNRGEC
B2: P1AD8592: CEA-split-DOTAM-VL hemibody targeting CH1A1A; heavy chains SEQ ID NO: 30 and 33, light chain SEQ ID NO: 34 (antibody)
heavy 1: QVQLVQSGAEVKKPGASVKVSCKASGYTFTEFGMNWVRQAPGQGLEWMGWINTKTGEATYVEEFKGRVTFTTDTSTSTAYMELRSLRSDDTAVYYCARWDFAYYVEAMDYWGQGTTVTVSSASTKGPSVFPLAPSSKSTSGGTAALGCLVKDYFPEPVTVSWNSGALTSGVHTFPAVLQSSGLYSLSSVVTVPSSSLGTQTYICNVNHKPSNTKVDKKV[human IgG1 Fc with changes not listed]
heavy 2: QVQLVQSGAEVKKPGASVKVSCKASGYTFTEFGMNWVRQAPGQGLEWMGWINTKTGEATYVEEFKGRVTFTTDTSTSTAYMELRSLRSDDTAVYYCARWDFAYYVEAMDYWGQGTTVTVSSASTKGPSVFPLAPSSKSTSGGTAALGCLVKDYFPEPVTVSWNSGALTSGVHTFPAVLQSSGLYSLSSVVTVPSSSLGTQTYICNVNHKPSNTKVDKKVEPKSCDKTHTCPPCPAPEAAGGPSVFLFPPKPKDTLMISRTPEVTCVVVDVSHEDPEVKFNWYVDGVEVHNAKTKPREEQYNSTYRVVSVLTVLHQDWLNGKEYKCKVSNKALGAPIEKTISKAKGQPREPQVCTLPPSRDELTKNQVSLSCAVKGFYPSDIAVEWESNGQPENNYKTTPPVLDSDGSFFLVSKLTVDKSRWQQGNVFSCSVMHEALHNHYTQKSLSLSPGGGGGSGGGGSGGGGSGGGGSIQMTQSPSSLSASVGDRVTITCQSSHSVYSDNDLAWYQQKPGKAPKLLIYQASKLASGVPSRFSGSGSGTDFTLTISSLQPEDFATYYCLGGYDDESDTYGFGGGTKVEIK
light: DIQMTQSPSSLSASVGDRVTITCKASAAVGTYVAWYQQKPGKAPKLLIYSASYRKRGVPSRFSGSGSGTDFTLTISSLQPEDFATYYCHQYYTYPLFTFGQGTKLEIKRTVAAPSVFIFPPSDEQLKSGTASVVCLLNNFYPREAKVQWKVDNALQSGNSQESVTEQDSKDSTYSLSSTLTLSKADYEKHKVYACEVTHQGLSSPVTKSFNRGEC
B3: P1AF0712: CEA CH1A1A SPLIT antibody with DOTA-VL; SEQ ID NO: 97, 98, light chain 103 (antibody)
heavy 1: QVQLVQSGAEVKKPGASVKVSCKASGYTFTEFGMNWVRQAPGQGLEWMGWINTKTGEATYVEEFKGRVTFTTDTSTSTAYMELRSLRSDDTAVYYCARWDFAYYVEAMDYWGQGTTVTVSSASTKGPSVFPLAPSSKSTSGGTAALGCLVKDYFPEPVTVSWNSGALTSGVHTFPAVLQSSGLYSLSSVVTVPSSSLGTQTYICNVNHKPSNTKVDKKV[human IgG1 Fc with changes not listed]
heavy 2: QVQLVQSGAEVKKPGASVKVSCKASGYTFTEFGMNWVRQAPGQGLEWMGWINTKTGEATYVEEFKGRVTFTTDTSTSTAYMELRSLRSDDTAVYYCARWDFAYYVEAMDYWGQGTTVTVSSASTKGPSVFPLAPSSKSTSGGTAALGCLVKDYFPEPVTVSWNSGALTSGVHTFPAVLQSSGLYSLSSVVTVPSSSLGTQTYICNVNHKPSNTKVDKKVEPKSCDKTHTCPPCPAPEAAGGPSVFLFPPKPKDTLMISRTPEVTCVVVDVSHEDPEVKFNWYVDGVEVHNAKTKPREEQYNSTYRVVSVLTVLHQDWLNGKEYKCKVSNKALGAPIEKTISKAKGQPREPQVCTLPPSRDELTKNQVSLSCAVKGFYPSDIAVEWESNGQPENNYKTTPPVLDSDGSFFLVSKLTVDKSRWQQGNVFSCSVMHEALHNHYTQKSLSLSPGGGGGSGGGGSGGGGSGGGGSQAVVIQESALTTPPGETVTLTCGSSTGAVTASNYANWVQEKPDHLFTGLIGGHNNRPPGVPARFSGSLIGDKAALTIAGTQTEDEAIYFCALWYSDHWVIGGGTKLTVL
light: DIQMTQSPSSLSASVGDRVTITCKASAAVGTYVAWYQQKPGKAPKLLIYSASYRKRGVPSRFSGSGSGTDFTLTISSLQPEDFATYYCHQYYTYPLFTFGQGTKLEIKRTVAAPSVFIFPPSDEQLKSGTASVVCLLNNFYPREAKVQWKVDNALQSGNSQESVTEQDSKDSTYSLSSTLTLSKADYEKHKVYACEVTHQGLSSPVTKSFNRGEC

Assays:
SC BxPC3 tumors = assay: Protocol 144: biodistribution of pretargeted 212Pb-DOTAM, 2-step vs 3-step PRIT; format: in vivo, SCID mice; settings: 6 hours after ^212Pb-DOTAM injection, ±SD, n=4
Procedure: All experimental protocols were reviewed and approved by the local authorities (Comité Regional d'Ethique de l'Experimentation Animale du Limousin [CREEAL], Laboratoire Départemental d'Analyses et de Recherches de la Haute-Vienne). Female severe combined immunodeficiency (SCID) mice (Charles River) were maintained under specific and opportunistic pathogen free (SOPF) conditions with daily cycles of light and darkness (12 h/12 h), in line with ethical guidelines. No manipulations were performed during the first 5 days after arrival, to allow the animals to acclimatize to the new environment. Animals were controlled daily for clinical symptoms and detection of adverse events.
Solid xenografts were established by subcutaneous (SC) injection of CEA-expressing tumor cells in cell culture media mixed 1:1 with Corning® Matrigel® basement membrane matrix (growth factor reduced; cat No. 354230). Tumor volumes were estimated through manual calipering 3 times per week, calculated according to the formula: volume 0.5× length×width^2. Additional tumor measurements were made as needed depending on the tumor growth rate. […]

[1] = FACS staining using DOTA-FITC: recruitment of Pb-DOTA-FITC to MKN-45 cells by SPLIT antibodies; format: binding; settings: antibodies 10 μg/mL, separate or combined, FIG. 24
Procedure: MKN-45 cells were detached from the culture bottle using Trypsin and were counted using a Casy cell counter. After pelleting at 4° C., 300 g the cells were resuspended in FACS Buffer (2.5% FCS in PBS), adjusted to 2.0E+06 cells/mL dispensed to 96-well PP V-bottom-Platte (25 μL/well=5.0E+04Zellen/well).
The CEA specific SPLIT antibodies (P1AF0712 or P1AF0713respectively) were adjusted to 40 μg/mL in FACS buffer, resulting in a final concentration of 10 μg/mL. Both antibodies were added to the cells either combined or separated and followed by buffer and incubated at 4° C. for 1 h. Subsequently, Pb-DOTA labeled with FITC was added to the cells in equimolar ratio to the antibodies and incubated for 1 h at 4° C. The cells were then washed twice in FACS buffer and resuspended in 70 μl/well FACS buffer for measurement using a FACS Canto (BD, Pharmingen). […] Only a combination of both SPLIT halves was able to recruit Pb-DOTAM-FITC to the target cells (FIG. 24).
EC50 was determined for the SPLIT antibodies using either secondary antibody based detection, (488, top panel) or Pb-DOTA-FITC (DOTA-FITC, bottom panel)

Molecule	tumor uptake of ^212Pb (SC BxPC3 tumors)	fluorescence signal of Pb-DOTA-FITC on MKN-45 cells [1]
B1	no accumulation of radioactivity in tumors	
B2	no accumulation of radioactivity in tumors	
B3		neither of the SPLIT halves was giving rise to a fluorescence signal
